The IC50 comes from the fitted curve, where viability falls to half of the control; where the fit passes the top or lowest dose, that dose stands as a limit. AUC, from the same fit, is the share of area under the viability curve across the 256-fold dose range: 1 means no effect, lower means more sensitive.
Compound: N#CC[C@H](C1CCCC1)n1cc(-c2ncnc3[nH]ccc23)cn1 [Ruxolitinib]
Experiment: Viability of human cancer cell lines after 72 h of drug (GDSC screen)
Protocol: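 Human cancer cell lines in 384-well plates, medium with 10% serum, drug for 72 h over a 256-fold dose range (nine 2-fold or five 4-fold steps up to the top dose). Adherent lines were fixed and stained with the nucleic acid dye Syto60, suspension lines read with resazurin; signal relative to control wells, capped at 0 and 100%. One two-parameter sigmoid per drug and line, fitted in a mixed model over all curves with the slope shared within a line.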

RERF-LC-MS (lung adenocarcinoma, adherent, top dose 5.24 µM)
AUC: 0.984
IC50: > 5.24 µM

KMRC-1 (kidney, adherent, top dose 5.24 µM)
AUC: 0.987
IC50: > 5.24 µM

TE-12 (oesophagus, suspension, top dose 5.24 µM)
AUC: 0.981
IC50: > 5.24 µM

T-T (oesophagus, adherent, top dose 5.24 µM)
AUC: 0.986
IC50: > 5.24 µM

G-402 (soft tissue, adherent, top dose 5.24 µM)
AUC: 0.971
IC50: > 5.24 µM

CAL-27 (head and neck, adherent, top dose 5.24 µM)
AUC: 0.967
IC50: > 5.24 µM

NCI-H226 (lung squamous cell carcinoma, adherent, top dose 5.24 µM)
AUC: 0.987
IC50: > 5.24 µM

HT-1376 (bladder, adherent, top dose 5.24 µM)
AUC: 0.985
IC50: > 5.24 µM

SAS (head and neck, adherent, top dose 5.24 µM)
AUC: 0.971
IC50: > 5.24 µM

PA-1 (ovary, adherent, top dose 5.24 µM)
AUC: 0.993
IC50: > 5.24 µM

ES4 (Ewing sarcoma, adherent, top dose 5.24 µM)
AUC: 0.981
IC50: > 5.24 µM

RERF-LC-KJ (lung adenocarcinoma, adherent, top dose 5.24 µM)
AUC: 0.986
IC50: > 5.24 µM

U-118-MG (glioma, adherent, top dose 5.24 µM)
AUC: 0.985
IC50: > 5.24 µM

ES5 (Ewing sarcoma, adherent, top dose 5.24 µM)
AUC: 0.963
IC50: > 5.24 µM

Hep 3B2_1-7 (liver, adherent, top dose 5.24 µM)
AUC: 0.986
IC50: > 5.24 µM

JHH-1 (liver, adherent, top dose 5.24 µM)
AUC: 0.978
IC50: > 5.24 µM

HSC-2 (head and neck, adherent, top dose 5.24 µM)
AUC: 0.989
IC50: > 5.24 µM

RPMI-8866 (chronic myeloid leukaemia, suspension, top dose 5.24 µM)
AUC: 0.987
IC50: > 5.24 µM

TT (thyroid, adherent, top dose 5.24 µM)
AUC: 0.983
IC50: > 5.24 µM

D-263MG (glioma, adherent, top dose 5.24 µM)
AUC: 0.983
IC50: > 5.24 µM

SNU-387 (liver, adherent, top dose 5.24 µM)
AUC: 0.974
IC50: > 5.24 µM

RCC-AB (kidney, adherent, top dose 5.24 µM)
AUC: 0.977
IC50: > 5.24 µM

NCI-H187 (small cell lung carcinoma, suspension, top dose 5.24 µM)
AUC: 0.927
IC50: > 5.24 µM

DMS-114 (small cell lung carcinoma, adherent, top dose 5.24 µM)
AUC: 0.984
IC50: > 5.24 µM

KMH-2 (thyroid, adherent, top dose 5.24 µM)
AUC: 0.99
IC50: > 5.24 µM

NH-12 (neuroblastoma, adherent, top dose 5.24 µM)
AUC: 0.984
IC50: > 5.24 µM

NB12 (neuroblastoma, adherent, top dose 5.24 µM)
AUC: 0.975
IC50: > 5.24 µM

G-401 (kidney, adherent, top dose 5.24 µM)
AUC: 0.978
IC50: > 5.24 µM

769-P (kidney, adherent, top dose 5.24 µM)
AUC: 0.967
IC50: > 5.24 µM

NCI-H196 (small cell lung carcinoma, adherent, top dose 5.24 µM)
AUC: 0.962
IC50: > 5.24 µM

HuCCT1 (biliary tract, adherent, top dose 5.24 µM)
AUC: 0.975
IC50: > 5.24 µM

OMC-1 (cervix, adherent, top dose 5.24 µM)
AUC: 0.979
IC50: > 5.24 µM

HT (B-cell lymphoma, suspension, top dose 5.24 µM)
AUC: 0.988
IC50: > 5.24 µM

Hs683 (glioma, adherent, top dose 5.24 µM)
AUC: 0.988
IC50: > 5.24 µM

JHH-6 (liver, adherent, top dose 5.24 µM)
AUC: 0.987
IC50: > 5.24 µM

YH-13 (glioma, adherent, top dose 5.24 µM)
AUC: 0.986
IC50: > 5.24 µM

NCI-H1838 (lung adenocarcinoma, adherent, top dose 5.24 µM)
AUC: 0.984
IC50: > 5.24 µM

SKN-3 (head and neck, adherent, top dose 5.24 µM)
AUC: 0.983
IC50: > 5.24 µM

SNU-475 (liver, adherent, top dose 5.24 µM)
AUC: 0.991
IC50: > 5.24 µM

SN12C (kidney, adherent, top dose 5.24 µM)
AUC: 0.985
IC50: > 5.24 µM

MFM-223 (breast, adherent, top dose 5.24 µM)
AUC: 0.985
IC50: > 5.24 µM

NCI-H64 (small cell lung carcinoma, suspension, top dose 5.24 µM)
AUC: 0.996
IC50: > 5.24 µM

SKN (uterus, adherent, top dose 5.24 µM)
AUC: 0.975
IC50: > 5.24 µM

OVISE (ovary, adherent, top dose 5.24 µM)
AUC: 0.961
IC50: > 5.24 µM

BC-3 (B-cell lymphoma, suspension, top dose 5.24 µM)
AUC: 0.875
IC50: 4.19 µM

U251 (glioma, adherent, top dose 5.24 µM)
AUC: 0.987
IC50: > 5.24 µM

RPMI-8402 (T-cell lymphoblastic leukaemia, suspension, top dose 5.24 µM)
AUC: 0.987
IC50: > 5.24 µM

OC-314 (ovary, adherent, top dose 5.24 µM)
AUC: 0.991
IC50: > 5.24 µM

WM1552C (melanoma, adherent, top dose 5.24 µM)
AUC: 0.987
IC50: > 5.24 µM

TK10 (kidney, adherent, top dose 5.24 µM)
AUC: 0.981
IC50: > 5.24 µM

SCC-9 (head and neck, adherent, top dose 5.24 µM)
AUC: 0.981
IC50: > 5.24 µM

H2731 (mesothelioma, adherent, top dose 5.24 µM)
AUC: 0.98
IC50: > 5.24 µM

YAPC (pancreas, adherent, top dose 5.24 µM)
AUC: 0.983
IC50: > 5.24 µM

UWB1.289 (ovary, adherent, top dose 5.24 µM)
AUC: 0.976
IC50: > 5.24 µM

AU565 (breast, adherent, top dose 5.24 µM)
AUC: 0.982
IC50: > 5.24 µM

KYSE-50 (oesophagus, adherent, top dose 5.24 µM)
AUC: 0.99
IC50: > 5.24 µM

D-336MG (glioma, adherent, top dose 5.24 µM)
AUC: 0.976
IC50: > 5.24 µM

CAL-148 (breast, suspension, top dose 5.24 µM)
AUC: 0.99
IC50: > 5.24 µM

LS-513 (large intestine, adherent, top dose 5.24 µM)
AUC: 0.987
IC50: > 5.24 µM

HLE (liver, adherent, top dose 5.24 µM)
AUC: 0.982
IC50: > 5.24 µM

DK-MG (glioma, adherent, top dose 5.24 µM)
AUC: 0.973
IC50: > 5.24 µM

Reference: the supplement of paper PMC4967469
